According to PubChem BioAssay AID485360 (National Center for Advancing Translational Sciences (NCATS), 2010):
About 1,500 (0.65%) of roughly 230,000 compounds were called active. Inconclusive means that the source gave no clear call. Such entries were picked first, then a sample of the others. The call rests on the fitted dose curve; in most records, active means well fitted inhibition curve with a large enough effect; inconclusive means small, poorly fitted or top-dose-only effect; inactive means no such curve, though single readings can be large or run the other way. Potencies of inconclusive entries are doubtful fits and often do not repeat.

Target: Lethal(3)malignant brain tumor-like protein 1 (Homo sapiens) (UniProt Q9Y468)
Sequence of UniProt Q9Y468 (Q9Y468 whole entry, looked up): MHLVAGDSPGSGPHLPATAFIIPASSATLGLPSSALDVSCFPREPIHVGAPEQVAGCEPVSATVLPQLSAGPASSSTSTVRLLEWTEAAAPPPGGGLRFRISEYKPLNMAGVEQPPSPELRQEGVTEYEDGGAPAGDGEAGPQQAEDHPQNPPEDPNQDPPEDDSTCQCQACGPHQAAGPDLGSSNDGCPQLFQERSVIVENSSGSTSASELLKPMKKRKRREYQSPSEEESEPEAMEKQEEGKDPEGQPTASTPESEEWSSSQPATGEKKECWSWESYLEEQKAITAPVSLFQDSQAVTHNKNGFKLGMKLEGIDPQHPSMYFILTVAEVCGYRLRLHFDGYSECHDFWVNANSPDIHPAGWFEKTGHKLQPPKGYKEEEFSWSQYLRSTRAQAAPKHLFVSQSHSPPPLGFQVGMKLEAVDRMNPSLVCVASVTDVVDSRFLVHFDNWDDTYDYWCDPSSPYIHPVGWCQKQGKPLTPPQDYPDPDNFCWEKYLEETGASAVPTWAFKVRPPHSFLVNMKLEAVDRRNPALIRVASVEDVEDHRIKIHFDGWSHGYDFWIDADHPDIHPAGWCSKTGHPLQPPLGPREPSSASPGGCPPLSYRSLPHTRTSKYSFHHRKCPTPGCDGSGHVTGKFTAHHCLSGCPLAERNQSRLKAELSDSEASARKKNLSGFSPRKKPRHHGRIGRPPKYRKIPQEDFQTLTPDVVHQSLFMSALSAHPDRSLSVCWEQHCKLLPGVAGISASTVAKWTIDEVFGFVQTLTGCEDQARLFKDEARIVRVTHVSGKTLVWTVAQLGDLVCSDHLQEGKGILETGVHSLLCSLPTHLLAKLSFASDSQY
Assay: qHTS Assay for the Inhibitors of L3MBTL1; further: nearly all actives have a fitted effect of over 60% in size
Settings: AlphaScreen L3MBTL1–H3K9me1 peptide binding; series mostly up to 57.1 µM
Procedure, shortened: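 L3MBTL1 50 nM + b-AHA-H3(1-15)K9me1 75 nM, 30 min RT; compound added, 30 min RT; streptavidin donor/Ni-chelate acceptor beads 10 ug/mL each final, 30 min RT dark; AlphaScreen read.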
Potency means the concentration at half of the fitted maximal effect; tags describe the fitted curve by direction and shape.

SMILES	Potency
COc1cccc(C(c2c(C)[nH]n(-c3ccccc3)c2=O)c2c(C)[nH]n(-c3ccccc3)c2=O)c1OC	inactive
CN(CCC#N)CC(=O)Nc1ccc(S(N)(=O)=O)cc1	inactive
O=[N+]([O-])c1ccc(N2CCN(Cc3cccc([N+](=O)[O-])c3)CC2)cc1	inactive
COC(=O)c1ccccc1NC(=O)COC(=O)c1ccc(C)c(NC(=O)c2ccco2)c1	inactive
O=C(/C=C/Nc1ccc(Oc2ccccc2Cl)cc1)c1ccco1	inconclusive: 39.8 µM [inhibitor, single point]
COc1cccc(C(=O)N2CCN(C3CCCCC3)CC2)c1	inactive
O=[N+]([O-])c1cc(-n2cnnn2)ccc1N1CCC(Cc2ccccc2)CC1	inconclusive: 14.1 µM [inhibitor, partial curve]
C/C(=N\NC(=O)C1CC1)c1ccc(NC(=O)c2ccc(Br)o2)cc1	inconclusive: 39.8 µM [inhibitor, single point]
Cn1c(=O)n(CC(=O)N2CCN(c3nnc(-c4ccccc4)c4ccccc34)CC2)c2ccccc21	inactive
CCn1nc(CC(=O)Nc2nnc(CC(=O)N3CCCC3)s2)c2ccccc2c1=O	inconclusive: 39.8 µM [inhibitor, single point]
O=C(O)c1ccc(Nc2nc(-c3cc4ccccc4oc3=O)cs2)cc1O	inconclusive: 39.8 µM [inhibitor, single point]
COc1ccccc1C(=O)NC(=S)/C=C1/N(C)c2ccccc2C1(C)C	active: 12.6 µM
CCn1c(SCC(=O)N/N=C/C=C/c2ccco2)nnc1-c1ccccc1	inconclusive: 39.8 µM [inhibitor, single point]
Cc1nc(NC(=O)c2ccccc2)sc1-c1csc(Nc2cccc(Cl)c2)n1	inactive
COc1ccc(OC)c(Nc2nc(NCc3ccco3)c3ccccc3n2)c1	inactive
COc1cc2c(cc1OC)C(SC)=NC(C)(C)C2	inactive
Cc1cccc2c1N(CCOc1ccccc1Cl)C(=O)C2=O	inconclusive: 28.2 µM [inhibitor, partial curve]
CC1CCN(CC(=O)Nc2ccc(N3CCCCCC3)cc2)CC1	inconclusive: 7.08 µM [inhibitor, partial curve]
Cc1cc(=O)oc2c(CN3CCC(C)CC3)c(O)c(Cl)cc12	active: 31.6 µM
CC(NC(=O)Nc1ccc(Cl)c(Cl)c1)C(c1ccccc1)N1CCOCC1 (stereo unspecified)	inconclusive: 39.8 µM [inhibitor, single point]
CN(c1ccccc1)S(=O)(=O)c1ccc(NC(=O)c2ccco2)cc1	inconclusive: 0.398 µM [inhibitor, full curve, poor fit]
Cc1nc(CSc2nsc(/C=C/N(C)C)c2C#N)cs1	inconclusive: 28.2 µM [inhibitor, single point]
Cc1ccc(-n2c(SCC(=O)NCc3ccco3)nc3sc(C)c(C)c3c2=O)cc1	inactive
CS(=O)(=O)N(CCc1ccccc1)CC(=O)NCc1ccccn1	inconclusive: 2 µM [inhibitor, single point]
O=[N+]([O-])c1ccccc1-c1ccc(C(=S)N2CCN(c3ccccc3)CC2)o1	inactive
CN(C)C(=O)COC(=O)c1ccc(S(=O)(=O)NCc2ccco2)cc1	inconclusive: 0.708 µM [inhibitor, single point]

SMILES	Potency
O=C(O)c1ccccc1N=N/C(=N/Nc1cc(S(=O)(=O)O)ccc1O)c1ccccc1	inconclusive: 35.5 µM [inhibitor, single point]
Cc1cc(C(=O)COC(=O)c2nccnc2N)c(C)n1C	inactive
CCCSCC(=O)Nc1ncc2c(n1)-c1ccccc1CC2	inconclusive: 39.8 µM [inhibitor, single point]
O=C(CN1C(=O)/C(=C2\SC(=S)N(C3CCS(=O)(=O)C3)C2=O)c2ccccc21)Nc1ccccc1 (stereo unspecified)	inactive
N#C/C(=C/c1ccco1)C(N)=S	inconclusive: 28.2 µM [inhibitor, single point]
CN(/C(=N/S(=O)(=O)c1cccs1)c1ccccc1)c1ccccc1	inactive
CCOC(=O)c1cc(C(C)(C)C)oc1CNC(=O)c1c(C)oc2c1CCCC2	inconclusive: 5.01 µM [inhibitor, full curve, poor fit]
Cc1ccc(NC(=O)CS(=O)CC(=O)Nc2ccc(N3CCOCC3)cc2)cc1Cl (stereo unspecified)	inconclusive: 11.2 µM [inhibitor, single point]
O=S(=O)(c1ccccc1)n1ccc2ccccc21	inactive
CSc1nc2c(c(=O)[nH]1)C(c1cccs1)C1=C(CCCC1=O)N2 (stereo unspecified)	inconclusive: 39.8 µM [inhibitor, single point]
CN(C)c1ccc(CNC(=O)CCS(=O)(=O)c2ccc3c(c2)n(C)c(=O)c(=O)n3C)cc1	inconclusive: 39.8 µM [inhibitor, single point]
O=C1CCCC/C1=C\Nc1ccc(O)cc1	inconclusive: 25.1 µM [inhibitor, single point]
O=C(CN1CCSCC1)N/N=C/c1cccc(Cl)c1	inactive
COc1cccc(C(=O)NCCSc2ccc(Br)cc2)c1	inconclusive: 8.91 µM [inhibitor, single point]
CC1CCCCC1NC(=O)Cn1ncc2ccccc21 (stereo unspecified)	inconclusive: 39.8 µM [inhibitor, single point]
CCCCC1CN2CCc3c([nH]c4ccccc34)C2(C)C1 (stereo unspecified)	inactive
CCCCn1c(NCc2ccc(N(C)C)cc2)nc2ccccc21	inconclusive: 39.8 µM [inhibitor, single point]
COCC1CCN(Cc2cn(Cc3ccccc3)nc2-c2cc3ccccc3o2)CC1	inconclusive: 5.01 µM [inhibitor, full curve, poor fit]
Cc1ccc(S(=O)(=O)N2CCN(C(=O)CCN3C(=O)c4ccccc4C3=O)CC2)cc1C	inactive
NC(=O)c1sc2nc3c(c(-c4cccs4)c2c1N)CCCC3	inactive
Cc1nc(-n2[nH]c3c(c2=O)CCCC3)[nH]c(=O)c1Cc1ccccc1	inconclusive: 39.8 µM [inhibitor, single point]
COc1cccc(/C=N/Nc2nc3ccccc3[nH]2)c1OC	inactive
COC1=C(Nc2ccc(O)cc2)C(=O)c2ccccc2C1=O	inconclusive: 15.8 µM [inhibitor, partial curve]
COCCCNC(=S)N/N=C/c1ccc2ccccc2c1	inactive
O=C(O)C1C2CCCCC2=C2CCCCC2C1C(=O)O (stereo unspecified)	inconclusive: 39.8 µM [inhibitor, single point]
Cc1cc(C)cc(N(CCC#N)C(=O)CSC2=Nc3ccccc3C3CC=NN23)c1 (stereo unspecified)	inconclusive: 3.16 µM [inhibitor, full curve]

SMILES	Potency
COc1ccc2c(c1)C=C(CN1CCC(CO)(CCc3ccccc3)CC1)CO2	inconclusive: 14.1 µM [inhibitor, partial curve]
Cc1cc2nc3n(c2cc1C)CCCN3	inactive
COCCNC(=S)NN=C1CCC(c2ccccc2)CC1 (stereo unspecified)	inconclusive: 20 µM [inhibitor, single point]
COc1cccc(NC(=O)CN(C)C(=O)c2cc3c(s2)CCC3)c1	active: 8.91 µM
C[C@@H]1CC(=O)[C@H]2CC(CO)=CCC[C@@H]2[C@@]1(C)CC/C(=C/CO)CO	inactive
C#CCOCCOCCOCCNc1nc(N2CCN(C(=O)CCCCCCCCCCNC(=O)Cn3cc(CCCCCN)nn3)CC2)nc(N2CCN(C(=O)CCCCCCCCCCNC(=O)Cn3cc(C[C@@H](C)O)nn3)CC2)n1	inactive
CC1(C)C(=O)Nc2ccccc2N1C(=O)CN1C(=O)NC(CCc2ccccc2)C1=O (stereo unspecified)	inconclusive: 0.355 µM [inhibitor, full curve, poor fit]
COc1ccc(C2=NNC(=Nc3cc(S(=O)(=O)N(C)C)ccc3C)SC2)c(OC)c1	inconclusive: 2.24 µM [inhibitor, full curve, poor fit]
Cc1cccc(C2c3[nH]c4ccccc4c3CCN2C(=O)c2cc(C(C)C)nc(N)n2)n1 (stereo unspecified)	inconclusive: 5.62 µM [inhibitor, full curve, poor fit]
COc1cc(/C=N/n2cnnc2)ccc1OC(=O)c1ccco1	inactive
O=C(CCC(=O)c1cccs1)Nc1ncccc1O	inconclusive: 31.6 µM [inhibitor, partial curve]
CNC(=S)N1N=C(c2ccccc2)CC1c1ccccc1Cl (stereo unspecified)	inactive
O=C(COC(=O)c1ccc([N+](=O)[O-])cc1Cl)NCc1ccco1	inactive
COc1cc(NS(=O)(=O)N2CCCC2)cc(OC)c1OC	inconclusive: 0.794 µM [inhibitor, single point]
CCOc1cc(/C=N/O)cc(Br)c1OC	inactive
Nc1nc(NCc2ccco2)nc(N2CCN(Cc3ccccc3)CC2)c1[N+](=O)[O-]	inconclusive: 14.1 µM [inhibitor, partial curve]
COc1cccc(CN2CCN(c3cccc(C(F)(F)F)c3)CC2)c1OC	inactive
Cc1ccc(C2=NS(=O)(=O)N(C)C(C(=O)Nc3ccc(F)cc3F)=C2)cc1	inactive
CCOc1ccc(/C=N/Nc2nncc(-c3ccccc3)n2)cc1OC	inconclusive: 0.1 µM [inhibitor, full curve, poor fit]
CCOc1ccc(-n2c(C)c(C(C)=O)c(C(C)=O)c2C)cc1	inactive
CSc1nncc(-c2ccc(F)cc2)n1	inconclusive: 3.55 µM [inhibitor, partial curve]
CN1CCN(CC#CCC(O)(c2ccccc2)C2CCCC2)CC1 (stereo unspecified)	inactive
S=c1[nH]c2ccc(Cl)cc2s1	inactive
NC(=O)c1c(NC(=O)CN2C(=O)NC(Cc3ccccc3)C2=O)sc2c1CCC2 (stereo unspecified)	inconclusive: 39.8 µM [inhibitor, partial curve]
